This sample is rich in variants without activity.

B1: TPR 5TU (parent)
chain: GGAUCUUCUCGAUCUAACAAAAAAGACAAAUCUGCCACAAAGCUUGAGAGCAUCUUCGGAUGCAGAGGCGGCAGCCUUCGGUGGCGCGAUAGCGCCAACGUUCUCAACUAUGACACGCAAAACGCGUGCUCCGUUGAAUGGAGUUUAUCAUG

Variants of B1 are the subject of the data set. The data set can be described thus: polymerase ribozyme fitness, log enrichment relative to wild type (log ratio); higher = more active; in vitro selection for triplet polymerase activity. The essentials: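 For each subunit of a heterodimeric triplet polymerase ribozyme, a mutant library was built by PCR and transcribed, then taken through a single in vitro selection round in triplicate. Selection involved annealing to a biotinylated primer, the partner subunit and triplets, incubation frozen at −7 °C, gel excision of extended constructs, capture on streptavidin beads and RT-PCR. Genotypes were retained after Illumina sequencing of inputs and outputs only with ≥10 input reads and ≥1 read in each output. Fitness is defined as the logarithm of a genotype's enrichment relative to wild-type enrichment, using inverse-variance-weighted averages across replicates, with the logarithm taken to base 2.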
Take GGAUCUUCUCGAUCUAACAAAAAAGACAAAUCUGCCACAAAGCUUGAGAGCAUCUUCGGAUGCAGAGGCUGCAGCCUUCGGUGGCGCGAUAGCGCCAACGUUCUCAACUAUGACACGCAAACCGCGUGCUCCGUUGAAUGGAGGUUAUCAUG [G70U A122C U144G]: the “polymerase ribozyme fitness (log ratio)” value was -2.06.

As for GGAUCUUCUCGAUCUAACAAAAAAGACAAAUCUGCCACAAAGCUUGAGAGCAUCUUCGGAUGCAGAGGCAGCAGCCUUCGGUGGCGCGAUAGCGCCAACGUUGUCAACUAUGACACGCAAAUCGCGUGCUCCGUUGAAUGGAGUUUAUCAUG [G70A C103G A122U], the “polymerase ribozyme fitness (log ratio)” value was no more than -4.2. Consider GGAUCUUCUCGAUCUAACAAAAAAGACAAAUCUGCCACAAAGCUUGAGAGCAUCUUCGGAUGCAGAGGCGACAGCCUUCGGUGGCGGGAUAGAGGCAACGUUCUCAACUAUGACACGCAAAACGCGUGCUCCGUUGAAUGGAGUUUAUCAUG [G71A C87G C93A C95G], for which the “polymerase ribozyme fitness (log ratio)” value was no more than -4.2. To GGAUCUUCUCGAUCUAACAAAAAAGACAAAUCUGCCACAAAGCUUGAGAGCAUCUUCGGAUGCAGAGGCAGCAGCCUUCGGUGGAGCGAUAGAGCCAACGUUCUCAACUAUGACACGCAAAACGCCUUAUCCGUUGAAUGGAGUUUAUCAUG [G70A C85A C93A G126C G128U C129A] belongs no more than -4.2.

Turning to GGAUCUUCUCGAUCUAACAAAAAAGACAAAUCUGCCACAAAGCUUGAGAGCAUCUUCGGAUGCAGAGGCUGCAGCCAGCGGUGGCGCGAUAUCGCCAACGUUCUCAACUAUGACACGCAAAACUCGUGCUCCGUUGAAUGGAGUUUAUCAUG [G70U U77A U78G G92U G124U], the “polymerase ribozyme fitness (log ratio)” value is no more than -4.2. The result for GGAUCUUCUCGAUCUAACAAAAAAGACAAAUCUGCCACAAAGCUUGAGAGCAUCUUCGGAUGCAGAGGCAGCAGCCUUCGGUGGCGCGAUAGCGCCAACGUUCACAACUUUGACACGCAAAACGCGUGCUCCGUUGAAUGGAGUUUAUCAUG [G70A U104A A110U] reads no more than -4.2; that for GGAUCUUCUCGAUCUAACAAAAAAGACAAAUCUGCCACAAAGCUUGAGAGCAUCUUCGGAUGCAGAGGCGCCAGCCUUCGGUUGCGCGAUAGCGCCAACGUUCUCAACUAUGACACGCAAAACGCGUGCUCCGUUGAAUGAAGUUUCUAAUG [G71C G83U G141A A147C C149A], no more than -4.2; that for GGAUCUUCUCGAUCUAACAAAAAAGACAAAUCUGCCACAAAGCUUGAGAGCAUCUUCGGAUGCAGAGGCCGCAGCAUUUGGUGGCGAGAUAGCGCCAACGUUCUCAACUAUGACACGCAAAACGCGUGCUCCGUUGAAUGGAGUUUAUCAUG [G70C C76A C79U C87A], no more than -4.2. To GGAUCUUCUCGAUCUAACAAAAAAGACAAAUCUGCCACAAAGCUUGAGAGCAUCUUCGGAUGCAGAGGCUGCAGCCUUCUGUGGCGCGAUAGCGCCAACGUUCUCAACUAUGACACGCGAAACGCGUGCUCCGUUGAAUGGAGUUUAUCAUG [G70U G80U A119G] belongs no more than -4.2; to GGAUCUUCUCGAUCUAACAAAAAAGACAAAUCUGCCACAAAGCUUGAGAGCAUCUUCGGAUGCAGAGGCAGCAGCCUUCGGUGGCGCGAUAGUGCCAACGUUCUCAACUAUGACACGCAAAACGCGUGCUCCGUUGAAUGCAGUUUAUCAUG [G70A C93U G141C], no more than -4.2; to GGAUCUUCUCGAUCUAACAAAAAAGACAAAUCUGCCACAAAGCUUGAGAGCAUCUUCGGAUGCAGAGGCGACAGCCUUCGGUGGCGCGAUUGCGGCAACGUUCUCAACUAUGACACGCUAGACGCGUGAUCCGUUGAAUGGAGUUUGUCAUG [G71A A91U C95G A119U A121G C129A A147G], no more than -4.2. To GGAUCUUCUCGAUCUAACAAAAAAGACAAAUCUGCCACAAAGCUUGAGAGCAUCUUCGGAUGCAGAGGCAGCAGCCGUCGGUGGCGCGAUAGCGCCAACCUUCUCAACGAUGACACGCAAAACGCGUGCUCCGUUGAAUGGAGUUUAUCAUG [G70A U77G G100C U109G] belongs no more than -4.2. For the variant GGAUCUUCUCGAUCUAACAAAAAAGACAAAUCUGCCACAAAGCUUGAGAGCAUCUUCGGAUGCAGAGGCAGCAGCCUUCGGUUGCGCGAUAGCGCCAACGUUCUAAACUAUGACACGCAAAACGCGUGCUCCGUUGAAUGGAGUUUCACAUG [G70A G83U C105A A147C U148A], the “polymerase ribozyme fitness (log ratio)” value is no more than -4.2. To GGAUCUUCUCGAUCUAACAAAAAAGACAAAUCUGCCACAAAGCUUGAGAGCAUCUUCGGAUGCAGAGGCCGCAGCCUUCGGUGGCGCGAUAGCCCCAACGUUCUCAGCUAUGACACGCAAAACGGGUGCUCCGUUGAAUGGAGUUUAUCAUG [G70C G94C A107G C125G] belongs no more than -4.2; to GGAUCUUCUCGAUCUAACAAAAAAGACAAAUCUGCCACAAAGCUUGAGAGCAUCUUCGGAUGCAGAGGCGCCAGCCUUCGGUGUCGCGAUAGCGCCAACUUUCUCAACUAUGACACGCAAAACGCGUGAUCCGUUGAAUUGAGUUUAUCAUG [G71C G84U G100U C129A G140U], no more than -4.2. On to GGAUCUUCUCGAUCUAACAAAAAAGACAAAUCUGCCACAAAGCUUGAGAGCAUCUUCGGAUGCAGAGGCCGCAGCCUUCGGGGGCGCGAUAGCGCCAACGUUCUCAACUAUGACACGCAAAACGCAUGCUCCGUUGAAGGGAGUUUAUCAUG [G70C U82G G126A U139G], for which the “polymerase ribozyme fitness (log ratio)” value is no more than -4.2. To GGAUCUUCUCGAUCUAACAAAAAAGACAAAUCUGCCACAAAGCUUGAGAGCAUCUUCGGAUGCAGAGGCAGCAGCCUUCGGUGACGCAAUAGCGCCAACGUUCUCAACUAUGACACGCAAAACGCGUGCUCCGUUGAAUGGAGUAUAUCAUG [G70A G84A G88A U145A] belongs no more than -4.2. To GGAUCUUCUCGAUCUAACAAAAAAGACAAAUCUGCCACAAAGCUUGAGAGCAUCUUCGGAUGCAGAGGCGACAGCCUUCGGUGGUACGAUAGUGCCAACGUUCUCAACUAUGAUACGCAAAACGCGUGCUCCGUUGAAUGGAGUUUAUCGUG [G71A C85U G86A C93U C114U A150G] belongs no more than -4.2.

For GGAUCUUCUCGAUCUAACAAAAAAGACAAAUCUGCCACAAAGCUUGAGAGCAUCUUCGGAUGCAGAGGCCGCAGCCUUCGGUGGCGCGAUAGCGCCAACGUUCUCAACUAUGACAUGCAAAACGCGCGCUCCGUUUAAUGGAGUUUAUCAUG [G70C C116U U127C G136U], the “polymerase ribozyme fitness (log ratio)” value is no more than -4.2.

The values are drawn from the RNAGym collection of RNA variant scans (doi:10.1073/pnas.2313332121).
